Reference: PubChem BioAssay AID1461 (National Center for Advancing Translational Sciences (NCATS), 2008)
The campaign covered roughly 220,000 compounds. About 2,300 (1%) were called active. Inconclusive results, whose numbers are uncertain, are shown with a selection of clear calls. The call rests on the fitted dose curve; in most records, active means well fitted inhibition curve with a large enough effect; inconclusive means small, poorly fitted or top-dose-only effect, or effect the other way; inactive means no such curve, though single readings can be large or run the other way. No potency is given beside an inconclusive call; the fits are too rough.

Each compound was assayed against Neuropeptide S receptor (Homo sapiens) (UniProt Q6W5P4) (assay: qHTS Assay for Antagonists of the Neuropeptide S Receptor: cAMP Signal Transduction). Conditions: CHO-NPSR cells, cAMP TR-FRET, antagonist mode; activity change, negative = inhibition: at 38.3 µM (top of the series) unless noted.
Chain of UniProt Q6W5P4 (Q6W5P4 whole entry, looked up): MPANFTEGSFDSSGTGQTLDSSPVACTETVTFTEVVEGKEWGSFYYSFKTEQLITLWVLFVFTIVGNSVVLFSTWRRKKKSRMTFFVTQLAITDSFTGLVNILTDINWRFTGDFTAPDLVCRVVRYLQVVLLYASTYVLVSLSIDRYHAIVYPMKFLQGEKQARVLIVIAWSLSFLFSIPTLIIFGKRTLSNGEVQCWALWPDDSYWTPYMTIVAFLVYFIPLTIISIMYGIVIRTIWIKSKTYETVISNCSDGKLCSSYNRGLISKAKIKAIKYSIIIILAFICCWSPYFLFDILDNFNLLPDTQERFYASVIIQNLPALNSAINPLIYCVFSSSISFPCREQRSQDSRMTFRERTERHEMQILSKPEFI
Further: nearly all actives have a fitted effect of over 50% in size.
On the % scale 0 is the no-effect control and ±100 the full control effect; potency means the concentration at half of the fitted maximal effect; tags describe the fitted curve by direction and shape.

| SMILES | Potency | activity change, negative = inhibition |
| --- | --- | --- |
| CC(C)(C)c1ccc(Cn2ccc(-c3ccc4c(c3)OCO4)n2)cc1 | inconclusive [inhibitor, single point] |  |
| CCN(CC)S(=O)(=O)c1ccc(C(=O)NC(=S)N(CCC#N)Cc2cccnc2)cc1 |  | inactive: -4.35% |
| O=[N+]([O-])c1ccc(N2CCCCC2)cc1N1CCOCC1 | inconclusive [inhibitor, single point] |  |
| O=C(CSc1cccc[n+]1[O-])Nc1ccccc1Oc1ccccc1 | inconclusive [inhibitor, full curve, poor fit] |  |
| CCOC(=O)C(NC(=O)c1ccccc1Cl)(Nc1ccc(C)c(C)c1)C(F)(F)F (stereo not given) |  | inactive: -37.3% |
| CCn1c(/N=C/c2ccccc2NS(=O)(=O)c2ccc(C)cc2)nc2ccccc21 | inconclusive [inhibitor, single point] |  |
| N#C[C@@H]1[C@@H]2C(=O)N(c3ccc4c(c3)OCCO4)C(=O)[C@@H]2C2c3ccccc3C=CN21 (stereo not given in full) |  | inactive: -20.3% [at 46.1 µM] |
| Cc1cc(C)c[n+](CC(=O)c2ccc(NC(=O)c3ccccc3)cc2)c1 |  | inactive: 8.54% |
| O=C(NC12CC3CC(CC(C3)C1)C2)c1ccc(S(=O)(=O)N2CCOCC2)cc1 |  | inactive: -21.6% [at 46.1 µM] |
| COc1ccc(CNC(=O)c2cc(-c3cc(C)cc(C)c3O)n[nH]2)cc1 | inconclusive [inhibitor, single point] |  |
| O=c1[nH]c(SCc2cccc(F)c2)nc2c1CCCC2 |  | inactive: 6.93% |
| CCCCn1nnnc1SCC(=O)Nc1sc2c(c1C#N)CCCC2 |  | inactive: -22.9% [at 46.1 µM] |
| Cc1ccc(N(C)C(=O)N2CCN(S(=O)(=O)c3ccc(C)cc3)CC2)cc1 |  | inactive: -7.23% [at 46.1 µM] |
| CC(C)c1nc2oc3ccccc3c(=O)c2c(=O)n1-c1ccccc1 | inconclusive [activator, single point] |  |
| CC(C)CCn1c(Sc2nc3ccccc3o2)nc2c1c(=O)[nH]c(=O)n2C |  | inactive: 32.3% |
| CCS(=O)(=O)N1Cc2ccccc2CC1C(=O)NC(C)C12CC3CC(CC(C3)C1)C2 (stereo not given) | inconclusive [inhibitor, single point] |  |
| Cc1c(O)cc2n(c1=O)-c1ccccc1C2(C)C | inconclusive [activator, full curve, poor fit] |  |
| Cc1c(NS(=O)(=O)c2ccc3c(c2)CCN3C(=O)C2CC2)c(=O)n(-c2ccccc2)n1C | inconclusive [inhibitor, single point] |  |
| Cc1ccc(NC(=O)c2cc(N3C(=O)C=CC3=O)ccc2Cl)cc1C | inconclusive [inhibitor, single point] |  |
| O=C(CSc1nc2ccccc2c(=O)n1-c1ccc(F)cc1F)Nc1ccc(N2CCOCC2)cc1 |  | inactive: -16.4% |
| CC(C)(C)c1cc(C(=O)N/N=C/c2ccc(F)cc2)n(-c2ccccc2)n1 | inconclusive [inhibitor, single point] |  |
| O=C(NC(=S)Nc1ccc(Br)cn1)c1cncc(Br)c1 |  | inactive: -3.3% [at 46.1 µM] |
| CC(C)CC(C(=O)NCC1CCCO1)N(C(=O)Cn1nnc(-c2ccc(F)cc2)n1)c1ccccc1F (stereo not given) | inconclusive [inhibitor, single point] |  |

| SMILES | Potency | activity change, negative = inhibition |
| --- | --- | --- |
| O=C(NCCCc1ccccc1)c1ccccc1O | inconclusive [inhibitor, single point] |  |
| COc1ccc(-c2nnc(SCc3nnc(-c4ccccc4)o3)n2-c2ccccc2)cc1 | inconclusive [inhibitor, partial curve] |  |
| COc1ccc(NC(=O)/C(Cl)=C(/Cl)S(=O)Cc2ccc(C)cc2)cn1 (stereo not given) | active: 1 µM |  |
| COc1ccc2nc(C)cc(SCC(=O)N/N=C/c3cccc4ccccc34)c2c1 |  | inactive: -16% [at 46.1 µM] |
| Cc1ccc(-c2csc3ncnc(SCC(=O)NCc4ccc5c(c4)OCO5)c23)cc1 |  | inactive: -16.2% [at 46.1 µM] |
| CC(=O)Nc1ccccc1C(=O)C(=O)Nc1ccc(C)c(C)c1 |  | inactive: -26.7% |
| CCCCCOc1ccc(C(=O)NCC2(c3ccccc3)CCOCC2)cc1 | inconclusive [inhibitor, single point] |  |
| COc1cc(NC2c3ccccc3C(=O)N2Cc2ccccc2Cl)cc(OC)c1OC (stereo not given) | inconclusive [inhibitor, single point] |  |
| O=S(=O)(c1ccccc1)N1CCN(c2nnc(-c3ccccc3)c3ccccc23)CC1 | inconclusive [activator, partial curve] |  |
| CC1(C(=O)c2ccccc2)C2c3c(ccc4ccccc34)OC(=O)C21C(=O)N1CCOCC1 (stereo not given) | inconclusive [inhibitor, single point] |  |
| CCOC(=O)CN1C(=O)CN(c2ccc(C)cc2)C1=O |  | inactive: 13.9% |
| O=C(C1=C[C@H](c2ccc(Br)cc2)C[C@H](OCc2ccc(CO)cc2)O1)N1CCN(Cc2ccc3c(c2)OCO3)CC1 | inconclusive [activator, partial curve] |  |
| O=c1[nH]c(CSc2nnc(-c3ccccc3)n2C2CCCCC2)nc2ccccc12 | inconclusive [inhibitor, single point] |  |
| O=S(=O)(Nc1nc(SCc2ccc(Cl)cc2)n[nH]1)c1ccc(F)cc1 | inconclusive [activator, partial curve] |  |
| N#CC1=C(c2ccccc2)/C(=C/c2ccccc2)OC1=O | active: 2.51 µM |  |
| O=S(=O)(c1ccc(Cl)cc1)c1snnc1-c1ccccc1 | inconclusive [inhibitor, single point] |  |
| Cc1cc(C(=O)N/N=C/c2c(C)n(C)c3ccccc23)n[nH]1 |  | inactive: -16% |
| CCOc1ccc(S(=O)(=O)N(C)c2ccc(OCC(=O)OCc3c(C)noc3C)cc2)cc1 | inconclusive [inhibitor, partial curve, poor fit] |  |
| CNC(=O)c1c(NC(=O)c2nc3ccccc3s2)sc2c1CCC2 | inconclusive [inhibitor, partial curve, poor fit] |  |
| COc1ccc(/C=N/NC(=S)NCC2CCCO2)cc1 (stereo not given) |  | inactive: -19.7% |
| Cc1ccc(NC(=O)c2nn(C34CC5CC(CC(C5)C3)C4)cc2[N+](=O)[O-])cc1 | inconclusive [inhibitor, partial curve] |  |
| COc1cccc(OCCn2cccc2/C=C2/C(=N)N3OC(C)=CC3=NC2=O)c1 |  | inactive: -30% |
